PMC4336329 (PLoS ONE, 2015)
In all, about 310,000 compounds went through this assay and about 2,200 (0.71%) showed an effect of 50% or more. Effects have a minus sign here. The list shows a part of the results.

Target: human ether-à-go-go-related gene (hERG) potassium channel (human, UniProt Q12809)
Assay: primary screen, population patch clamp on CHO cells stably expressing hERG

Chain of human ether-à-go-go-related gene (hERG) potassium channel (Q12809 whole entry, looked up): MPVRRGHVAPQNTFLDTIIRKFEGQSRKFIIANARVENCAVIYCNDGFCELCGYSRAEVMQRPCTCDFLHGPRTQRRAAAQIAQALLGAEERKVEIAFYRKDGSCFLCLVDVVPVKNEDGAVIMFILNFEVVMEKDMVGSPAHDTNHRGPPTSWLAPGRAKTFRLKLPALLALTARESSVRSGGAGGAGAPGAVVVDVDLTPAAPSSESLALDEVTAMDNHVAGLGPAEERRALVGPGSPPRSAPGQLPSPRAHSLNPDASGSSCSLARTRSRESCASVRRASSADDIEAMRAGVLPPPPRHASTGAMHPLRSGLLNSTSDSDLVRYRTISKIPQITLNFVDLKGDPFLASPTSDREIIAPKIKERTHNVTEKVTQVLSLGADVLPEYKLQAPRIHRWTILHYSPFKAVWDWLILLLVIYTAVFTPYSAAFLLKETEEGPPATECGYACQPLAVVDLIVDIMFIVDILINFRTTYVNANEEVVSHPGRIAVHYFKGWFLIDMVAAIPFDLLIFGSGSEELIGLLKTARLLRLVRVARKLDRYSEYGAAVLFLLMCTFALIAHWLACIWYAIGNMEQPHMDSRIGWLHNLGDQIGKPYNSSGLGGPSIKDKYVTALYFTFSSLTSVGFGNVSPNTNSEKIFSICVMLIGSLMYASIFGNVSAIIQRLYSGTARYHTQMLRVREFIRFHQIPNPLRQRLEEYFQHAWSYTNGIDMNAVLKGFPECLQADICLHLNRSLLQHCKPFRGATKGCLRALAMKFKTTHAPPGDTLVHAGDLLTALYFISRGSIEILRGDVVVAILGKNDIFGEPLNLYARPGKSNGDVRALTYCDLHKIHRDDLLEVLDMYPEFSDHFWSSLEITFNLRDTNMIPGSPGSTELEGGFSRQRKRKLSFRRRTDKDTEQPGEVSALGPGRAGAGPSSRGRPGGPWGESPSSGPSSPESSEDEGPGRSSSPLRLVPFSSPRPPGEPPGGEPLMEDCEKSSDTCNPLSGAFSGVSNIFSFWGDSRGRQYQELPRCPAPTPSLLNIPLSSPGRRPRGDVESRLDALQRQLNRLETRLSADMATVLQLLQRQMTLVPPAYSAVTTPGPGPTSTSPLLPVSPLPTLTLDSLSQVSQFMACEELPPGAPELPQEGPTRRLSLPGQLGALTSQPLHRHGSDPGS

Row | SMILES | hERG current change (%, negative = inhibition) at 1uM
1 | O=C(Nc1ncc(S(=O)(=O)c2ccc([N+](=O)[O-])cc2)s1)c1ccccc1F | 14.3%
2 | Cc1ccc(-c2csc(NC(=O)C[n+]3cc(-c4ccccc4)n4c3CCC4)n2)cc1.[Cl-] | 6.26%
3 | CCOC(=O)c1nn(-c2ccc3ccccc3c2)cc1O | 13.1%
4 | COCCn1c(Cc2ccccc2)nnc1SCC(=O)Nc1cc(C)on1 | 3.43%
5 | CSc1ccc(/C=C(/NC(=O)c2ccco2)C(=O)N2CCOCC2)cc1 | -1.91%
6 | CCc1ccc(NC(=O)CCNS(=O)(=O)c2cccs2)cc1 | 11.2%
7 | O=C(N/N=C/c1ccc2c(c1)OCO2)c1cc(-c2ccc(F)cc2)nc2ccccc12 | 16.3%
8 | O=C(N/N=C/c1ccco1)c1ccc(NC(=O)c2ccccc2Cl)cc1 | 14%
9 | Cc1c(C(=O)N2CCc3ccccc3C2)oc2ccc(Br)cc12 | 11.7%
10 | Cc1noc(C)c1COC(=O)CCc1nc2ccccc2c(=O)[nH]1 | 11.5%
11 | CC(=O)Nc1ccc(C(=O)OCC(=O)NC(=O)NC2CCCCC2)cc1 | 4.04%
12 | O=C(CSc1ccc(-c2ccccn2)nn1)NC1CCCC1 | 12.9%
13 | CCN(CC)CC(C(=O)N(CC)CC)P(=O)(c1ccccc1)c1ccccc1 (stereo not shown) | 12.9%
14 | COc1ccc(S(=O)(=O)NNC(=O)Cc2csc(C)n2)cc1[N+](=O)[O-] | 19.3%
15 | c1ccc(CCc2ccccc2-c2nc(-c3cccnc3)no2)cc1 | 18.3%
16 | COCCCNS(=O)(=O)c1ccc2[nH]c3c(c2c1)CCCCC3 | 12.6%
17 | C/C(=N\Nc1nc2ccccc2c(=O)n1O)c1ccco1 | 10.3%
18 | CCc1ccc2c(Cl)c(C(=O)N/N=C/c3c[nH]c4ccccc34)sc2c1 | 4.09%
19 | COc1ccc(/C=C/C(=O)OCC(=O)N2CC(=O)Nc3ccccc32)cc1S(=O)(=O)N1CCOCC1 | 12.2%
20 | O=C(c1cccc(S(=O)(=O)Nc2ccc(F)cc2)c1)N1CCCC1 | 9.34%
21 | COc1cc(OC)cc(C(=O)Nc2ncc3c(n2)CC(C)CC3=O)c1 (stereo not shown) | 5.83%
22 | O=C1CCC[C@@H]2[C@H]3CCC[N+]4([O-])CCC[C@@H](CN12)[C@@H]34 (stereo partly shown) | 12.6%

Row | SMILES | hERG current change (%, negative = inhibition) at 1uM
23 | Cn1nnnc1SCC(=O)Nc1nn(-c2ccccc2)nc1C(N)=O | 1.55%
24 | CCO[C@H]1OC(C(=O)NCc2nc3ccccc3[nH]2)=C[C@@H](C2CC2)[C@@H]1CCCO | 22.7%
25 | O=C(NNC(=O)c1ccc[nH]1)Nc1cc(Cl)cc(Cl)c1 | 9.53%
26 | C/C(=C\C(=O)c1ccc(Br)cc1)Nc1cccc(Cl)c1 | 14%
27 | CC(NC(=O)c1ccccc1)C(=O)N/N=C/c1ccco1 (stereo not shown) | 16.4%
28 | O=C(Nc1ccc2ccccc2c1)NC1CCS(=O)(=O)C1 (stereo not shown) | 6.63%
29 | O=C(COc1ccc(Cl)cc1Cl)N/N=C/c1ccccn1 | -9.58%
30 | NC(=S)N=Nc1c(O)[nH]c2cc(F)c(F)cc12 | 13.6%
31 | O=C(CCCCCn1c(=S)[nH]c2ccccc2c1=O)N1CCOCC1 | 7.98%
32 | Cc1c(-c2cccc(NC(=O)c3cccs3)c2)nc2ncccn12 | 0.543%
33 | O=C(NCc1ccccc1F)Nc1ccc([N+](=O)[O-])cc1 | 15.4%
34 | O=C(COC(=O)c1ccc2c(c1)C(=O)N(Cc1ccncc1)C2=O)Nc1ccccc1[N+](=O)[O-] | -2.11%
35 | O/N=C/c1ccnc(SCc2ccc(Cl)cc2)n1 | 0.167%
36 | O=C(CNCc1ccccc1)NCCCN1CCCC1=O.O=C(O)C(=O)O | 14.8%
37 | CCN(CC)C(=O)Cc1ccccc1 | 13.5%
38 | O=C(N/C(=C\c1cccnc1)C(=O)N1CCOCC1)c1cccc(Br)c1 | 12.5%
39 | COC(=O)c1sc(S(=O)(=O)NCCCN(C)C)c(C(=O)OC)c1C | 10.6%
40 | NC(=O)c1ccc(NC(=O)COC(=O)c2ccc3c(c2)OCCO3)cc1 | 7.54%
41 | CCc1ccc(/C=C2/Sc3ccccc3N(CC(=O)NCCCN3CCOCC3)C2=O)cc1 | 0.526%
42 | CCOCCCn1c(=NC(C)=O)c(C#N)cc2c(=O)n3cccc(C)c3nc21 | -7.46%
43 | CC(C)c1ccc(C2(C)NC(=O)N(CC(=O)NC3CCCC(C)C3C)C2=O)cc1 (stereo not shown) | 6.29%
